Results on 72 sequences are retold here after article PMC10726135.

This is one part of the list. At the low end of the ranking the order means little. Measured with an extract: partners may take part in the binding.

In this test the target is T1, HNF4alpha8 (COS-7 nuclear extract) (UniProt P41235-5).
T1 sequence: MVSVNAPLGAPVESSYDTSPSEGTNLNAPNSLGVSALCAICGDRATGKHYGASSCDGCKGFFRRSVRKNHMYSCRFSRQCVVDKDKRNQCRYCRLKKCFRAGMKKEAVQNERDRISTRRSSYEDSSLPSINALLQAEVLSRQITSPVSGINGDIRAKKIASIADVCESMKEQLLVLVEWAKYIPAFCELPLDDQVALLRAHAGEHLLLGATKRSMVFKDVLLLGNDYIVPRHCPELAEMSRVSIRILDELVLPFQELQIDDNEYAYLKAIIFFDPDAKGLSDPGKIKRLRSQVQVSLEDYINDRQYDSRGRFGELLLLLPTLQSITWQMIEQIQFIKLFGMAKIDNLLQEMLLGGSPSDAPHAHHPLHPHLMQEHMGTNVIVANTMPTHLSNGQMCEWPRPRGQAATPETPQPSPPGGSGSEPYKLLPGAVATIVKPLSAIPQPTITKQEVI
Put plainly: protein-binding microarray. The note with it: COS-7 nuclear extract on double-stranded Agilent 4x180k PBM; binding buffer, salt, pH and temperature not given; high values mean tight binding; double strand, one strand shown; sequences stand for … in …GCCTAGGGAGATTAGAGTATCGGTCGA
As to GGAGGGGTGCGAAGGTCGAGGCCAGGGATT, the binding signal (log2 normalized intensity) worked out at 3.05.
Consider GTGTTATCTCTGATGCCCTTTGGCCTTTCT, for which the binding signal (log2 normalized intensity) was 7.1.
For AGAGCGTCCCACCTGAGGCCAAGCAGCTGT, the binding signal (log2 normalized intensity) is -1.26.
ATGTTTTGTTATCTGTGCCACAGGTATTTC: the binding signal (log2 normalized intensity) came out at 1.12.
Regarding AGCATAAGGTTTCCATCAAGCCTTTGACTC, the binding signal (log2 normalized intensity) is -1.1.
Take ACCGGGATTTTGTTGGGGAACTTTGCCCGG: the binding signal (log2 normalized intensity) was 5.21.
For the sequence AAAGAGCAGCTAGCTCCAGTTGGTTGCTAA, the binding signal (log2 normalized intensity) was -1.44.
Turning to ATTAAAAGATAAAACATTGTACCTTCTACC, the binding signal (log2 normalized intensity) came to 1.54.
In the case of TGGCCAATCCCAGGGTCAGAGGTCGCGAGG it was 4.67; in that of CAAACAATCCTCCCACCTCAGCATCCCAAG, 0.544.
Take CCAGGTCTCCTCCACAGAGCACAGGATCCA: the binding signal (log2 normalized intensity) was -1.24.
As to TGGGTTCAAAGGTCAGAAAAAGCTGACGCC, the binding signal (log2 normalized intensity) is 7.25.
In the case of GTCAGTGTCCAGCACACCTTTTTTTCATGC, the binding signal (log2 normalized intensity) was 0.77.
GGCGTCACCAACCAGCCCTCGAGTGAGGGG: the binding signal (log2 normalized intensity) stood at 2.08.
Consider CACTCCATTTACAGACCAATCCATTGACCT, for which the binding signal (log2 normalized intensity) worked out at 3.76.
With AGCCAGGCCAACACCAAGCAAGCTCTGCAA the figure was -1.23; with GCCAAACCAGGTCATGCATTCTGCTTACTA, -1.31.
In the case of CACAAGCTGTGTGGCATGGTGTTTTGCCTT, the binding signal (log2 normalized intensity) was 1.27.
Consider CTGGAAATGTTTGTAGGGACTTTGACCCCT, for which the binding signal (log2 normalized intensity) worked out at 10.4.
Regarding CCCCCAACAGGGCTCCTGTTCAGCATAGTC, the binding signal (log2 normalized intensity) is 2.5.
With AGAAAGGGGTCAGCAAAAATAGCCAAAATA the figure was -1.27; with TAGTGCAAGAATCCAAGAATTCGATTGTTT, -1.28.
Take TCCGTCTATAAATACGCCTCGCCCGAGCTG: the binding signal (log2 normalized intensity) was -1.33.
Regarding TCCGGGGTCACGCGCGTGTGGATACGATGA, the binding signal (log2 normalized intensity) amounted to 1.51.
Regarding TCAGCTGACATTGGTGGAATCTGAACTTTT, the binding signal (log2 normalized intensity) was 3.83.
Take CTGGGGGCAAAGGTTCACTTTGGGGAAGTC: the binding signal (log2 normalized intensity) came out at 4.6.
As to ACAGGCCCTCTGATATTGGGTGAGTGTTAG, the binding signal (log2 normalized intensity) was determined as 0.729.
In the case of TCTTATCTGCCTAGGCATTTGGCTGTCTCA it was -1.32; in that of CTGGGGACCTTTATATGTCCACCTTATCTA, 0.803.
In the case of CTACAAGGACCAGATTCTTAAAGGGACCAC it was -0.799; in that of GCACAGGTCCTACTCACACTCAAGGCAAGA, -1.38.
For TTGCACTCATACTTGAAGACATTCCAAGAA, the binding signal (log2 normalized intensity) was -1.27.
Take GGACTTTGGTGTCTGACAGATAAGATTTGG: the binding signal (log2 normalized intensity) was 2.62.
On to TCGGAAGACGCACCTCTGCATACTTCCTGT, for which the binding signal (log2 normalized intensity) is -1.24.
Turning to GAGGAGTGAGAACAGACAAAATTAAGTGAT, the binding signal (log2 normalized intensity) was -0.842.
For GTGGTAGGACAGGGCCCTTCACTATTTTCA, the binding signal (log2 normalized intensity) was -1.34.
For the sequence GTTCTCTGGGCTTTTTGATCTTGTCACATT, the binding signal (log2 normalized intensity) was determined as 1.99.
Turning to GCAGAGTCCCAAGCATCTCTGAGCAGTGAA, the binding signal (log2 normalized intensity) is -1.38.
Turning to CATGAAGGTCTCCTTGACTTCAAAGGCATT, the binding signal (log2 normalized intensity) is -1.
Take CATTTTTTCAAACACCTGGGTCTGACCTCT: the binding signal (log2 normalized intensity) is 4.84.
Consider ACATGGGCGTCACCAACCAGCCCTCGAGTG, for which the binding signal (log2 normalized intensity) was 3.36.
In the case of AGGCTGGGGGCAGAGTTCACCCCATTTTGT it was 3.24.
As to TTTGCATTCTTACCCAAGCCCCAAATCTAG, the binding signal (log2 normalized intensity) stood at 3.06.
With CAAACAGCGCTTATCTGGAAACTATTCCTT, the binding signal (log2 normalized intensity) is -1.1.
For the sequence TTGTGATACACCTTGCCTGGCTACCTCTTA, the binding signal (log2 normalized intensity) was -0.56.
In the case of GAGAAGCCTAAGCAGGGCTAGACTTTAACC it was 4.91; in that of GTGATCAAACAAAAGGGACAAAGGTGAGTG, 2.67; in that of TGAGGGTTAAAGGAGATAATGGGTGTAAGA, 0.874.
As to GCATCTGAGCAGATGTAAACATCATTCACG, the binding signal (log2 normalized intensity) is -1.25.
In the case of TTTGTTTGTGTAAGTGTGGGTTTAAGTAAG it was 1.69.
As for ACCCTGTGATGACCCCATACTTCAGCAATT, the binding signal (log2 normalized intensity) is 2.21.
As for CTGCTTTCAGAGATGATAAGCCCTGAGTAG, the binding signal (log2 normalized intensity) is -1.14.
Regarding CGGCTGTCAAATCACTGAAGCGACCCCTCG, the binding signal (log2 normalized intensity) is 3.5.
With GCAGGGTCATAGCTTTATCTCTCCCCCACC the figure was 4.32; with GATATGCGGCTGCAAATTCTGCATTTTTCT, -1.17.
Regarding GCCGGGAGCAGGGAGCGAGACGCTGAGCTT, the binding signal (log2 normalized intensity) was -1.4.
On to AGGAGGAGGTTCCTGGAACTCTGACCTTTG, for which the binding signal (log2 normalized intensity) came to 6.98.
In the case of GGCTGATAGGCAGAAGGGACTAGCCTTATC, the binding signal (log2 normalized intensity) is -1.39.
As for TAAACTTTTGATTGCTTAGGCTCTTGTTAT, the binding signal (log2 normalized intensity) came to 0.612.
Regarding TGTGTTACGTCTGGTTTCTTATCTTTCTCA, the binding signal (log2 normalized intensity) is 1.76.
In the case of TTCTCTGGCAAATATCAGCATGGTATGTGG it was 0.931; in that of CTTGAGGCTCCGATAAACCCAGGCAATGAC, -1.16.
With GCTGTCACCTTTACCCCCACTCTCCGCTGG the figure was 3.71.
Consider GGACTGGAAGGGAGAGATAAGAAAAACTGA, for which the binding signal (log2 normalized intensity) is -1.31.
As for CCGAGGTCTGATAAGCACCCTGCTCCAGCC, the binding signal (log2 normalized intensity) was -1.35.
As to AGGTTGGCTAAAGATAACCTAGAAAGGAGA, the binding signal (log2 normalized intensity) was -1.31.
Take GGTCCAGAGTTCACTGCAGGCTGGGGGCAG: the binding signal (log2 normalized intensity) is 1.8.
For the sequence TCTGCATACCAGGTAAGTGACATGCTTGCT, the binding signal (log2 normalized intensity) was -1.41.
Turning to GCCATGAGTTGGGGACAAAGTTCAAGGTCC, the binding signal (log2 normalized intensity) is 6.42.
Take GGAAAGGCATACGTGCTTAATCCTGGTGCA: the binding signal (log2 normalized intensity) was -0.941.
Regarding GTAGGGCAGAGGCCAGTTTGATCACAAGAC, the binding signal (log2 normalized intensity) was -0.285.
Regarding CACTCACAGGACTGCTGTGAGGATTGATTA, the binding signal (log2 normalized intensity) was -1.16.
